# Source: publication PMC4336329 (PLoS ONE, 2015)
# Hit rate of the full screen: of about 310,000 compounds, about 2,200 (0.71%) showed an effect of 50% or more. Effects have a minus sign here. The list shows a part of the results.
# Biological target: human ether-à-go-go-related gene (hERG) potassium channel (human, UniProt Q12809)
# Experiment: primary screen, population patch clamp on CHO cells stably expressing hERG
# Sequence of human ether-à-go-go-related gene (hERG) potassium channel (Q12809 whole entry, looked up): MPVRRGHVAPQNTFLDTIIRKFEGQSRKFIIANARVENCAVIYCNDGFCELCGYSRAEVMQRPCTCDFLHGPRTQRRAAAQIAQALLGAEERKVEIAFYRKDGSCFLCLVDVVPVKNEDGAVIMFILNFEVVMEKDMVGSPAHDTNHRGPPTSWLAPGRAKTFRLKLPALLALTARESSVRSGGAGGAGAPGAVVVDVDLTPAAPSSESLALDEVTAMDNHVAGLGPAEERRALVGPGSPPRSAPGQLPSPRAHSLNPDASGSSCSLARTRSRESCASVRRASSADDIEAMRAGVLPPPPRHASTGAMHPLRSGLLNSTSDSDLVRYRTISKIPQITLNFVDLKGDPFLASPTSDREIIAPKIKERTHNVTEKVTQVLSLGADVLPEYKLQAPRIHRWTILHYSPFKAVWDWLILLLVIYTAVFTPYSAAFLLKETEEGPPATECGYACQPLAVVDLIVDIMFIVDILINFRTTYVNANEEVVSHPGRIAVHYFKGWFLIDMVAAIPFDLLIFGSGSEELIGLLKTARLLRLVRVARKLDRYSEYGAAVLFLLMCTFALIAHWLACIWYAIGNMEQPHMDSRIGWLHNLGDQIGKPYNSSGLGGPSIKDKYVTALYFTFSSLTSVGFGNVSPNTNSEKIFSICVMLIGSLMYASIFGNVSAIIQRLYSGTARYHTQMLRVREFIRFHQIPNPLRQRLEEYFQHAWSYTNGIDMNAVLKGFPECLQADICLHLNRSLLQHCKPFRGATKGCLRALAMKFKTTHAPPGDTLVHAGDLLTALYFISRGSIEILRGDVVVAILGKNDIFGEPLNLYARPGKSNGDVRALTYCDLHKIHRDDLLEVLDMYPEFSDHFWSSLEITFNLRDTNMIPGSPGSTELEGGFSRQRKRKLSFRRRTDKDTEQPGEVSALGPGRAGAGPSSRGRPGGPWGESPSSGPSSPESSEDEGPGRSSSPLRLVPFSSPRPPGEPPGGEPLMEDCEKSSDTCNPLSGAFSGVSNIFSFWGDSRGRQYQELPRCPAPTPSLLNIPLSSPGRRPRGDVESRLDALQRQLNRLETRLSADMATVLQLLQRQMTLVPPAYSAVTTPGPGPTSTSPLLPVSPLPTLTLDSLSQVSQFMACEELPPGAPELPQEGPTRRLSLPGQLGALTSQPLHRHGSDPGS
row,Compound,"hERG current change (%, negative = inhibition) at 1uM [%]"
1,CN(CCNC(=O)CN1CCN(Cc2ccccc2Cl)C1=O)Cc1ccccc1,-0.949
2,O=C(c1noc2c1CCCCC2)N1CCOCC1,5.13
3,C/C(=N\NC(=O)c1ccoc1C)c1ccccc1,-0.872
4,NC(=O)CSc1nnc2n(-c3ccccc3)c(=O)c3c4c(sc3n12)CCCCC4,9.62
5,Cc1ccc(-n2nnnc2SCC(=O)Nc2cc(C)on2)c(C)c1,10.2
6,CC(C)(C)C(=O)CSc1nnc(-c2cccs2)n1CC1CCCO1 (centres unmarked),-1.53
7,C=CCN(CC=C)CCOc1ccccc1.O=C(O)C(=O)O,12.5
8,Cc1ccc(C2CC2c2n[nH]c(=S)n2-c2cccc(Cl)c2)cc1 (centres unmarked),10.9
9,Nc1ccc2oc3ccc(N)cc3c(=O)c2c1,17.5
10,CCN1C(=O)N[C@@H](c2ccc(Br)cc2)C(C(=O)OC)=C1C,8.57
11,Cc1ccc2c3c(cccc13)-c1ccccc1C2=O,17
12,COc1ccc(CCNC(=O)CCCn2c(SCC#N)nc3ccccc3c2=O)cc1OC,4.46
13,CCN(CCn1cccn1)Cc1c(C(=O)N2C[C@@H](C)O[C@@H](C)C2)nc2ccc(Cl)cn12,19.9
14,S=C(c1ccc(-c2ccc(Cl)cc2Cl)o1)N1CCCC1,15.6
15,CC(C)CN(C(=O)CN(C)C(=O)Cc1ccc(Cl)cc1)c1c(N)n(CC(C)C)c(=O)[nH]c1=O,11.3
16,CCn1c(SCC(=O)Nc2cccc(C)n2)nnc1-c1ccco1,0.773
17,O=C(Cn1cc(C(=O)C(F)(F)F)c2ccccc21)NCc1ccco1,10.1
18,CC1CCCC(NC(=O)CCNS(=O)(=O)c2ccc(Br)cc2)C1C (centres unmarked),3.02
19,C=CCNC(=S)NNC(=O)c1cc(Cl)ccc1OC,15.1
20,O=C(NC1CCCC1)C(c1ccc(F)cc1)N(C(=O)c1csnn1)C1CCCC1 (centres unmarked),5.89
21,CCN(C(=O)c1ccc(S(=O)(=O)N(C)C)cc1)C(C)C(=O)Nc1ccc(C)cc1 (centres unmarked),15.2
22,Cc1oc(-c2ccccc2F)nc1CS(=O)(=O)CC(=O)NCCCN1CCc2ccccc2C1,-12.4

row,Compound,"hERG current change (%, negative = inhibition) at 1uM [%]"
1,CC1CCN(CCCNS(=O)(=O)c2cc(Br)cc3c2N(C(=O)C2CC2)CC3)CC1,11.9
2,CCSc1nc(N)c2c3c(sc2n1)CN(C)CC3,5.6
3,CC(=O)N(Cc1ccco1)Cc1cc2cccc(C)c2n2nnnc12,1.88
4,Cc1cccc(C)c1NC(=O)CNC(=O)c1cccc(S(=O)(=O)NCc2cccs2)c1,7.29
5,O=C(Nc1ccc(N2CCCCC2)cc1)c1cc([N+](=O)[O-])cc([N+](=O)[O-])c1,8.98
6,Cc1cc(C(=O)CN2C(=O)NC3(CCCCC3)C2=O)c(C)n1Cc1ccc2c(c1)OCO2,10.5
7,CCn1cc(C(=O)OCC(=O)NCc2ccccc2Cl)c(=O)c2ccc(C)nc21,13.1
8,C=CCn1c(-c2cccn(Cc3ccccc3)c2=O)n[nH]c1=S,15.8
9,Cc1ccc(S(=O)(=O)c2nc(S(C)(=O)=O)sc2N2CCC(C(N)=O)CC2)cc1,0.161
10,COc1cccc(CNC(=O)C(CCSC)NS(=O)(=O)c2ccc3c(c2)oc(=O)n3C)c1 (centres unmarked),3.54
11,CN(C)C(=O)c1cc(Cl)ccc1Sc1cc(Cl)ccc1Cl,7.7
12,O=C(NCc1ccccc1Cl)c1cccc(NC(=O)c2ccccc2)c1,5.41
13,NS(=O)(=O)c1ccc(-n2ncc3c(=O)[nH]c(SCC(=O)Nc4nccs4)nc32)cc1,13.3
14,Cc1cc2c(C)nc(N/N=C/c3ccc(F)cc3)nc2o1,-6.36
15,COc1cc(SC)ccc1C(=O)Nc1cc(C)c(OCC(=O)N2CCOCC2)c(C)c1,5.52
16,CC(Oc1cccc(F)c1)C(=O)Nc1ccc(N2CCOCC2)cc1 (centres unmarked),3.07
17,O=C(NCc1ccco1)C1CCCN1S(=O)(=O)c1ccccc1C(F)(F)F (centres unmarked),12.6
18,CCOC(=O)N1CCC2(CC1)C(C#N)=C(N)Oc1c2sc2nc(C)cc(C)c12,8.88
19,O=[N+]([O-])c1ccc(N2CCCC2)nc1N1CCCC1,14.6
20,Cc1cccc(C)c1NC(=O)COC(=O)Cc1ccsc1,9.06
21,Cc1ccc(/C=C/C(=O)O)cc1S(=O)(=O)Nc1ccccc1C(=O)O,10.8
22,Cc1cccnc1CCNC(=O)CCc1nnc(-c2ccccc2)o1,6.65

row,Compound,"hERG current change (%, negative = inhibition) at 1uM [%]"
1,CC(C)CCNC(=O)C(=O)NCC1OCCCN1S(=O)(=O)c1cccs1 (centres unmarked),6.33
2,CC(=O)C1=C(C)Nc2ncnn2C1c1cccc(Br)c1 (centres unmarked),1.05
3,COc1ccc(OC)c(CNS(=O)(=O)c2cc(CN3C(=O)c4cccnc4C3=O)ccc2OC)c1,-23.9
4,CCOC(=O)c1nn(-c2ccc(Cl)cc2)c2nc(-c3ccc(C)cc3)c(C#N)c(=O)n12,5.16
5,COc1ccc(OC)c(C(=O)CCCC(=O)c2cc(OC)ccc2OC)c1,20.3
6,Nc1nncn1C(=O)CCCN1C(=O)c2ccccc2C1=O,-5.39
7,COCCCNC(=O)CCc1c(C)nc2c(c(C)nn2-c2ccc(C)cc2)c1C,7.49
8,C=CCOC(=O)COc1cc(C)cc2oc(=O)c3c(c12)CCC3,-0.287
9,CCc1ccc(N(C(=O)c2csnn2)C(C(=O)NC(C)(C)CC)c2ccccn2)cc1 (centres unmarked),-24.9
10,Cn1c(NC(=O)C[n+]2cc(-c3ccc(Cl)cc3)n3c2CCC3)cc(=O)n(C)c1=O.[Cl-],15.5
11,CCOC(=O)c1sc(NC(=O)c2c(C)nn(Cc3ccccc3)c2C)cc1C,9.92
12,CC(=O)NN1C(=O)/C(=C2/Sc3ccccc3N2C)SC1=S,14.7
13,CC(=O)Nc1ccc(N(C(=O)CNC(=O)c2ccco2)C(C(=O)NCc2ccco2)c2ccccc2)cc1 (centres unmarked),15.8
14,COC(=O)c1ccc(/C(O)=C(\C#N)c2nc3ccccc3s2)cc1,18.5
15,CC(=O)Nc1ccc(S(=O)(=O)Nc2ccc3c(c2)C(=O)OC3)cc1,16.7
16,Cc1nnc(SCC(=O)Nc2c(Cl)cccc2Cl)[nH]c1=O,16.8
17,O=C1C(Cl)=C(N2CCC(C(=O)O)CC2)C(=O)c2ccccc21,-6.15
18,O=C(/C=C/c1cccs1)c1ccc(Br)cc1,5.65
19,O=C(/C=C/c1ccc(Cl)c([N+](=O)[O-])c1)c1cccnc1,8.02
20,COC(=O)C1=C(C)N(Cc2ccccc2)C(=O)N[C@H]1c1ccccc1,4.87
21,CCCCN(C(=O)c1ccc([N+](=O)[O-])s1)c1c(N)n(CC(C)C)c(=O)[nH]c1=O,17.3
22,O=C(Nc1ccccc1)[C@@H]1CC=C[C@@H]2CCN(C3CCCCC3)C(=O)[C@@H]21,12.3

row,Compound,"hERG current change (%, negative = inhibition) at 1uM [%]"
1,Cc1cccc(OCCC(=O)OCC(=O)Nc2c(C)nn(-c3ccccc3)c2C)c1,-12.2
2,Fc1ccc2c(c1)nnn2C1CCN(Cc2c(Cl)cccc2Cl)CC1,13.1
3,COc1ccc(CN(C)C2CCCCC2)c(C)c1C,0.0703
4,O=C(Nc1ccc(N2C(=O)c3cccc4cccc(c34)C2=O)cc1)c1ccc(N2CCCCC2)c([N+](=O)[O-])c1,10.3
5,Cc1ccc(C2CC(=O)NC(SCCC(C)C)=C2C#N)cc1 (centres unmarked),-5.25
6,Cc1cccc(CSc2nc3[nH]ncc3c(=O)[nH]2)c1,5.01
7,Cc1n[nH]c(C)c1S(=O)(=O)N1CCCC(C(=O)NC2CCCCC2)C1 (centres unmarked),13.7
8,CC(NS(=O)(=O)c1ccc2c(c1)oc(=O)n2C)c1ccccc1 (centres unmarked),9.67
9,Cn1ccnc1SCC(=O)c1ccc(C#N)cc1,5.55
10,CCn1c(CNC(=O)Cc2ccc(OC)cc2)nnc1SCC(=O)Nc1ccc(C(=O)O)cc1,13.5
11,O=C(Nc1ncn[nH]1)c1ccccc1Br,2.11
12,CC(C)NS(=O)(=O)c1ccc(NC(=O)C2CCCCC2)cc1,13.3
13,Cc1ccc(-c2noc(CCC(=O)N3CCCc4ccccc43)n2)cc1,0.398
14,O=C(CCCc1c[nH]c2ccccc12)NCc1ccccc1C(F)(F)F,14.4
15,Cc1cccc(N(C(=O)CCC(=O)Nc2nccs2)C(C(=O)NC(C)(C)C)c2ccc(O)cc2)c1 (centres unmarked),4.6
16,Cc1cc(C)n2nc(C(=O)OCC(=O)N(CCC#N)c3ccc(F)cc3)nc2n1,19.6
17,CC(c1ccccc1)n1c(-c2ccncc2)n[nH]c1=S (centres unmarked),8.79
18,Cn1c(SCC(=O)c2ccccc2)nnc1C1COc2ccccc2O1 (centres unmarked),7.24
19,O=C(NCCN1CCOCC1)c1ccc(/C=C2\Sc3ccccc3N(Cc3ccc(F)cc3)C2=O)cc1,14.3
20,O=C(CCCOc1ccc(Cl)cc1Cl)Nc1ccncc1,2.47
